# Experimental data from the supplement of paper PMC8728848.
# This is one part of the list.
# B1: Mg3lysM (Mycosphaerella graminicola) (protein)
# chain: APQNPPTSCSAAPQPTGTGSPGTVCGSTTFTNYTVKAGDTLGAIAKQYNSGVCDIAKVNGIDNPDYIKPDQVLSIPANCVTPDNTSCVKPVPVITNTCVLGVGSTYTVKSGDSFSAIATSFNITLASLEARNPQIPNYDLIFPGQVINTPLCPNSVCDSIGTYVIESGDIFYNLAQSNNVTVGQLESLNVNVNVTDIHPGDIIILPHNCHNITASA
# How the values were obtained:
# Test in all cases: glycan array binding signal (z-score within array); higher = stronger binding
# Details in all cases: glycan notation: IUPAC condensed, linker removed
# Glc(b1-6)Glc = target: Glc(b1-6)Glc
# In short: (§1)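 The binding signal is a Z-score computed within each array and averaged over linkers. Arrays of the same protein sequence at different concentrations or buffers were also averaged together. Data originate from 3228 arrays in the Consortium for Functional Glycomics database, kept only where the protein sequence was available.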
# GlcA(b1-3)Gal = target: GlcA(b1-3)Gal
# In short: as §1
# GlcA(b1-3)GlcNAc = target: GlcA(b1-3)GlcNAc
# In short: as §1
# GlcA(b1-6)Gal = target: GlcA(b1-6)Gal
# In short: as §1
# [1] = target: GlcA3S(b1-3)Gal(b1-4)GlcNAc(b1-2)Man
# In short: as §1
# [2] = target: GlcA3S(b1-3)Gal(b1-4)GlcNAc(b1-3)Gal(b1-4)Glc
# In short: as §1
# [3] = target: GlcNAc(a1-3)Gal(b1-4)GlcNAc
# In short: as §1
# [4] = target: GlcNAc(a1-4)Gal(b1-3)GlcNAc
# In short: as §1
# [5] = target: GlcNAc(a1-4)Gal(b1-4)GalNAc
# In short: as §1
# [6] = target: GlcNAc(a1-4)Gal(b1-4)GlcNAc
# In short: as §1
# [7] = target: GlcNAc(a1-4)Gal(b1-4)GlcNAc(b1-3)Gal(b1-4)Glc
# In short: as §1
# [8] = target: GlcNAc(a1-4)Gal(b1-4)GlcNAc(b1-3)Gal(b1-4)GlcNAc
# In short: as §1
# [9] = target: GlcNAc(a1-4)Gal(b1-4)GlcNAc(b1-3)Gal(b1-4)GlcNAc(b1-3)Gal(b1-4)GlcNAc
# In short: as §1
# [10] = target: GlcNAc(a1-4)Gal(b1-4)GlcNAc(b1-3)Gal(b1-4)[Fuc(a1-3)]GlcNAc(b1-3)Gal(b1-4)[Fuc(a1-3)]GlcNAc
# In short: as §1
# [11] = target: GlcNAc(a1-6)Gal(b1-4)GlcNAc
# In short: as §1
# [12] = target: GlcNAc(b1-2)Gal(b1-3)GalNAc
# In short: as §1
# [13] = target: GlcNAc(b1-2)Man(a1-3)[GlcNAc(b1-2)Man(a1-6)]Man(b1-4)GlcNAc(b1-4)GlcNAc
# In short: as §1
# [14] = target: GlcNAc(b1-2)Man(a1-3)[GlcNAc(b1-2)Man(a1-6)]Man(b1-4)GlcNAc(b1-4)[Fuc(a1-6)]GlcNAc
# In short: as §1
# [15] = target: GlcNAc(b1-2)Man(a1-3)[GlcNAc(b1-4)][GlcNAc(b1-2)Man(a1-6)]Man(b1-4)GlcNAc(b1-4)GlcNAc
# In short: as §1
# [16] = target: GlcNAc(b1-2)Man(a1-3)[GlcNAc(b1-4)][GlcNAc(b1-2)Man(a1-6)]Man(b1-4)GlcNAc(b1-4)[Fuc(a1-6)]GlcNAc
# In short: as §1
# [17] = target: GlcNAc(b1-2)[GlcNAc(b1-4)]Man(a1-3)[GlcNAc(b1-2)Man(a1-6)]Man(b1-4)GlcNAc(b1-4)GlcNAc
# In short: as §1
# [18] = target: GlcNAc(b1-2)[GlcNAc(b1-4)]Man(a1-3)[GlcNAc(b1-4)][GlcNAc(b1-2)Man(a1-6)]Man(b1-4)GlcNAc(b1-4)GlcNAc
# In short: as §1
# [19] = target: GlcNAc(b1-2)[GlcNAc(b1-4)]Man(a1-3)[GlcNAc(b1-4)][GlcNAc(b1-2)[GlcNAc(b1-6)]Man(a1-6)]Man(b1-4)GlcNAc(b1-4)GlcNAc
# In short: as §1
# [20] = target: GlcNAc(b1-2)[GlcNAc(b1-4)]Man(a1-3)[GlcNAc(b1-4)][GlcNAc(b1-2)[GlcNAc(b1-6)]Man(a1-6)]Man(b1-4)GlcNAc(b1-4)[Fuc(a1-6)]GlcNAc
# In short: as §1
# [21] = target: GlcNAc(b1-2)[GlcNAc(b1-6)]Man(a1-6)[GlcNAc(b1-2)Man(a1-3)]Man(b1-4)GlcNAc(b1-4)GlcNAc
# In short: as §1
# [22] = target: GlcNAc(b1-2)[GlcNAc(b1-6)]Man(a1-6)[GlcNAc(b1-2)Man(a1-3)]Man(b1-4)GlcNAc(b1-4)[Fuc(a1-6)]GlcNAc
# In short: as §1
# [23] = target: GlcNAc(b1-2)[GlcNAc(b1-6)]Man(a1-6)[GlcNAc(b1-4)][GlcNAc(b1-2)Man(a1-3)]Man(b1-4)GlcNAc(b1-4)GlcNAc
# In short: as §1
# GlcNAc(b1-3)Fuc = target: GlcNAc(b1-3)Fuc
# In short: as §1
# GlcNAc(b1-3)Gal = target: GlcNAc(b1-3)Gal
# In short: as §1
# [24] = target: GlcNAc(b1-3)Gal(b1-3)GalNAc
# In short: as §1
# GlcNAc(b1-3)Gal(b1-4)Glc = target: GlcNAc(b1-3)Gal(b1-4)Glc
# In short: as §1
# [25] = target: GlcNAc(b1-3)Gal(b1-4)GlcNAc
# In short: as §1
# [26] = target: GlcNAc(b1-3)Gal(b1-4)GlcNAc(b1-2)Man(a1-3)[GlcNAc(b1-3)Gal(b1-4)GlcNAc(b1-2)Man(a1-6)]Man(b1-4)GlcNAc(b1-4)GlcNAc
# In short: as §1
# [27] = target: GlcNAc(b1-3)Gal(b1-4)GlcNAc(b1-2)Man(a1-3)[GlcNAc(b1-3)Gal(b1-4)GlcNAc(b1-2)Man(a1-6)]Man(b1-4)GlcNAc(b1-4)[Fuc(a1-6)]GlcNAc
# In short: as §1
# [28] = target: GlcNAc(b1-3)Gal(b1-4)GlcNAc(b1-2)[GlcNAc(b1-3)Gal(b1-4)GlcNAc(b1-6)]Man(a1-6)[GlcNAc(b1-3)Gal(b1-4)GlcNAc(b1-2)Man(a1-3)]Man(b1-4)GlcNAc(b1-4)GlcNAc
# In short: as §1
# [29] = target: GlcNAc(b1-3)Gal(b1-4)GlcNAc(b1-3)Gal(b1-4)GlcNAc
# In short: as §1
# [30] = target: GlcNAc(b1-3)Gal(b1-4)GlcNAc(b1-3)Gal(b1-4)GlcNAc(b1-2)Man(a1-3)[GlcNAc(b1-3)Gal(b1-4)GlcNAc(b1-3)Gal(b1-4)GlcNAc(b1-2)Man(a1-6)]Man(b1-4)GlcNAc(b1-4)GlcNAc
# In short: as §1
# [31] = target: GlcNAc(b1-3)Gal(b1-4)GlcNAc(b1-3)Gal(b1-4)GlcNAc(b1-2)Man(a1-3)[GlcNAc(b1-3)Gal(b1-4)GlcNAc(b1-3)Gal(b1-4)GlcNAc(b1-2)Man(a1-6)]Man(b1-4)GlcNAc(b1-4)[Fuc(a1-6)]GlcNAc
# In short: as §1
# [32] = target: GlcNAc(b1-3)Gal(b1-4)GlcNAc(b1-3)Gal(b1-4)GlcNAc(b1-2)[GlcNAc(b1-3)Gal(b1-4)GlcNAc(b1-3)Gal(b1-4)GlcNAc(b1-6)]Man(a1-6)[GlcNAc(b1-3)Gal(b1-4)GlcNAc(b1-3)Gal(b1-4)GlcNAc(b1-2)Man(a1-3)]Man(b1-4)GlcNAc(b1-4)[Fuc(a1-6)]GlcNAc
# In short: as §1
# [33] = target: GlcNAc(b1-3)Gal(b1-4)GlcNAc(b1-3)Gal(b1-4)GlcNAc(b1-3)Gal(b1-4)GlcNAc(b1-2)Man(a1-3)[GlcNAc(b1-3)Gal(b1-4)GlcNAc(b1-3)Gal(b1-4)GlcNAc(b1-3)Gal(b1-4)GlcNAc(b1-2)Man(a1-6)]Man(b1-4)GlcNAc(b1-4)GlcNAc
# In short: as §1
# [34] = target: GlcNAc(b1-3)Gal(b1-4)GlcNAc(b1-3)Gal(b1-4)GlcNAc(b1-3)Gal(b1-4)GlcNAc(b1-2)Man(a1-3)[GlcNAc(b1-3)Gal(b1-4)GlcNAc(b1-3)Gal(b1-4)GlcNAc(b1-3)Gal(b1-4)GlcNAc(b1-2)Man(a1-6)]Man(b1-4)GlcNAc(b1-4)[Fuc(a1-6)]GlcNAc
# In short: as §1
# [35] = target: GlcNAc(b1-3)Gal(b1-4)GlcNAc(b1-3)Gal(b1-4)GlcNAc(b1-3)Gal(b1-4)GlcNAc(b1-2)[GlcNAc(b1-3)Gal(b1-4)GlcNAc(b1-3)Gal(b1-4)GlcNAc(b1-3)Gal(b1-4)GlcNAc(b1-6)]Man(a1-6)[GlcNAc(b1-3)Gal(b1-4)GlcNAc(b1-3)Gal(b1-4)GlcNAc(b1-3)Gal(b1-4)GlcNAc(b1-2)Man(a1-3)]Man(b1-4)GlcNAc(b1-4)[Fuc(a1-6)]GlcNAc
# In short: as §1
# [36] = target: GlcNAc(b1-3)Gal(b1-4)GlcNAc(b1-3)Gal(b1-4)GlcNAc(b1-3)Gal(b1-4)GlcNAc(b1-3)Gal(b1-4)GlcNAc(b1-2)Man(a1-3)[GlcNAc(b1-3)Gal(b1-4)GlcNAc(b1-3)Gal(b1-4)GlcNAc(b1-3)Gal(b1-4)GlcNAc(b1-3)Gal(b1-4)GlcNAc(b1-2)Man(a1-6)]Man(b1-4)GlcNAc(b1-4)GlcNAc
# In short: as §1
# [37] = target: GlcNAc(b1-3)Gal(b1-4)GlcNAc(b1-3)Gal(b1-4)GlcNAc(b1-3)Gal(b1-4)GlcNAc(b1-3)Gal(b1-4)GlcNAc(b1-2)Man(a1-3)[GlcNAc(b1-3)Gal(b1-4)GlcNAc(b1-3)Gal(b1-4)GlcNAc(b1-3)Gal(b1-4)GlcNAc(b1-3)Gal(b1-4)GlcNAc(b1-2)Man(a1-6)]Man(b1-4)GlcNAc(b1-4)[Fuc(a1-6)]GlcNAc
# In short: as §1
# [38] = target: GlcNAc(b1-3)Gal(b1-4)GlcNAc(b1-3)Gal(b1-4)GlcNAc(b1-3)Gal(b1-4)GlcNAc(b1-3)Gal(b1-4)GlcNAc(b1-2)[GlcNAc(b1-3)Gal(b1-4)GlcNAc(b1-3)Gal(b1-4)GlcNAc(b1-3)Gal(b1-4)GlcNAc(b1-3)Gal(b1-4)GlcNAc(b1-6)]Man(a1-6)[GlcNAc(b1-3)Gal(b1-4)GlcNAc(b1-3)Gal(b1-4)GlcNAc(b1-3)Gal(b1-4)GlcNAc(b1-3)Gal(b1-4)GlcNAc(b1-2)Man(a1-3)]Man(b1-4)GlcNAc(b1-4)[Fuc(a1-6)]GlcNAc
# In short: as §1
binder,measurement,setting,value
B1,glycan array binding signal (z-score),Glc(b1-6)Glc,-0.092
same,glycan array binding signal (z-score),GlcA(b1-3)Gal,-0.097
same,glycan array binding signal (z-score),GlcA(b1-3)GlcNAc,-0.059
same,glycan array binding signal (z-score),GlcA(b1-6)Gal,-0.012
same,glycan array binding signal (z-score),[1],-0.096
same,glycan array binding signal (z-score),[2],-0.193
same,glycan array binding signal (z-score),[3],-0.138
same,glycan array binding signal (z-score),[4],-0.03
same,glycan array binding signal (z-score),[5],-0.056
same,glycan array binding signal (z-score),[6],-0.104
same,glycan array binding signal (z-score),[7],-0.085
same,glycan array binding signal (z-score),[8],-0.091
same,glycan array binding signal (z-score),[9],-0.013
same,glycan array binding signal (z-score),[10],-0.042
same,glycan array binding signal (z-score),[11],-0.108
same,glycan array binding signal (z-score),[12],-0.053
same,glycan array binding signal (z-score),[13],-0.098
same,glycan array binding signal (z-score),[14],-0.152
same,glycan array binding signal (z-score),[15],-0.236
same,glycan array binding signal (z-score),[16],-0.071
same,glycan array binding signal (z-score),[17],-0.152
same,glycan array binding signal (z-score),[18],-0.068
same,glycan array binding signal (z-score),[19],-0.083
same,glycan array binding signal (z-score),[20],-0.113
same,glycan array binding signal (z-score),[21],-0.014
same,glycan array binding signal (z-score),[22],0.027
same,glycan array binding signal (z-score),[23],-0.017
same,glycan array binding signal (z-score),GlcNAc(b1-3)Fuc,0.041
same,glycan array binding signal (z-score),GlcNAc(b1-3)Gal,-0.19
same,glycan array binding signal (z-score),[24],-0.008
same,glycan array binding signal (z-score),GlcNAc(b1-3)Gal(b1-4)Glc,-0.114
same,glycan array binding signal (z-score),[25],-0.048
same,glycan array binding signal (z-score),[26],-0.109
same,glycan array binding signal (z-score),[27],-0.123
same,glycan array binding signal (z-score),[28],-0.174
same,glycan array binding signal (z-score),[29],-0.101
same,glycan array binding signal (z-score),[30],-0.032
same,glycan array binding signal (z-score),[31],-0.097
same,glycan array binding signal (z-score),[32],-0.054
same,glycan array binding signal (z-score),[33],-0.125
same,glycan array binding signal (z-score),[34],-0.011
same,glycan array binding signal (z-score),[35],-0.05
same,glycan array binding signal (z-score),[36],-0.191
same,glycan array binding signal (z-score),[37],0.089
same,glycan array binding signal (z-score),[38],0.031
